The values that follow come from the supplement of paper PMC6657886.

As usually defined, the MIC is the smallest concentration in the dilution series that meets the test's criterion for growth inhibition.

MIC of clinical N. gonorrhoeae isolates (2015-2017) by agar dilution on GC agar with 1% IsoVitaleX (ranges not stated); higher = less susceptible. No active / inactive call per row; the paper counts benzylpenicillin above 1 and ceftriaxone above 0.125 mg/L as resistant (EUCAST). The method is stated for benzylpenicillin and ceftriaxone and assumed for the other drugs. '<=' is inferred from pile-ups at the end values. Isolates are numbered anew. Bounds are passed on as bounds.

Common to all, as to assay: Agar dilution on enriched GC agar; resistance determinants by microarray.
(In agar dilution, organisms are placed on agar that contains the substance at set levels.)

Compound in one test: CC1(C)S[C@@H]2[C@H](NC(=O)Cc3ccccc3)C(=O)N2[C@H]1C(=O)O [benzylpenicillin]
Compound in the next test: CC[C@H]1OC(=O)[C@H](C)[C@@H](O[C@H]2C[C@@](C)(OC)[C@@H](O)[C@H](C)O2)[C@H](C)[C@@H](O[C@@H]2O[C@H](C)C[C@H](N(C)C)[C@H]2O)[C@](C)(O)C[C@@H](C)CN(C)[C@H](C)[C@@H](O)[C@]1(C)O [azithromycin]
Compound in a further test: CN(C)[C@@H]1C(O)=C(C(N)=O)C(=O)[C@@]2(O)C(O)=C3C(=O)c4c(O)cccc4[C@@](C)(O)[C@H]3C[C@@H]12 [tetracycline]
Compound in the next test: CN[C@@H]1[C@H](O)[C@H](NC)[C@H]2O[C@@]3(O)C(=O)C[C@@H](C)O[C@H]3O[C@@H]2[C@H]1O [spectinomycin]
Compound in the next test: CO/N=C(\C(=O)N[C@@H]1C(=O)N2C(C(=O)O)=C(CSc3nc(=O)c(O)nn3C)CS[C@H]12)c1csc(N)n1 [ceftriaxone]

“Neisseria gonorrhoeae isolate 218 (blaTEM plasmid: no, gyrA: wild type, mtrR promoter: wild type, parC: wild type, penA: ins345Asp, ponA: wild type, porB: wild type, rpsJ: wild type, tetM plasmid: no)”: the minimum inhibitory concentration (MIC) in the test with benzylpenicillin was ≤ 0.015 µg/mL; with azithromycin, 0.015 µg/mL; with tetracycline it was 0.12 µg/mL; with spectinomycin, 8 µg/mL; with ceftriaxone, ≤ 0.002 µg/mL.

On to “Neisseria gonorrhoeae isolate 240 (blaTEM plasmid: no, gyrA: Phe91, Asn 95, mtrR promoter: wild type, parC: wild type, penA: ins345Asp, ponA: Pro421, porB: Asp120, Gly121, rpsJ: Met57, tetM plasmid: yes)”, for which the MIC with benzylpenicillin was 0.06 µg/mL; with azithromycin, 0.03 µg/mL; with tetracycline, 4 µg/mL; in the test with spectinomycin, 16 µg/mL; in the test with ceftriaxone it was ≤ 0.002 µg/mL.

As to “Neisseria gonorrhoeae isolate 503 (blaTEM plasmid: no, gyrA: wild type, mtrR promoter: wild type, parC: wild type, penA: ins345Asp, ponA: wild type, porB: wild type, rpsJ: Met57, tetM plasmid: no)”, the MIC with benzylpenicillin is 0.03 µg/mL; with azithromycin, 0.03 µg/mL; in the test with tetracycline, 0.5 µg/mL; in the test with spectinomycin it was 16 µg/mL; in the test with ceftriaxone it was ≤ 0.002 µg/mL.

For “Neisseria gonorrhoeae isolate 237 (blaTEM plasmid: no, gyrA: wild type, mtrR promoter: wild type, parC: wild type, penA: wild type, ponA: wild type, porB: wild type, rpsJ: wild type, tetM plasmid: no)”, the MIC with benzylpenicillin amounted to 0.06 µg/mL; with azithromycin, 0.12 µg/mL; with tetracycline, 0.25 µg/mL; with spectinomycin, 16 µg/mL; with ceftriaxone it was 0.015 µg/mL.

Take “Neisseria gonorrhoeae isolate 26 (blaTEM plasmid: no, gyrA: wild type, mtrR promoter: wild type, parC: wild type, penA: ins345Asp, ponA: wild type, porB: wild type, rpsJ: wild type, tetM plasmid: no)”: the MIC with benzylpenicillin is 0.12 µg/mL; with azithromycin it was 0.015 µg/mL; in the test with tetracycline, 0.12 µg/mL; with spectinomycin, 32 µg/mL; with ceftriaxone, ≤ 0.002 µg/mL.

With “Neisseria gonorrhoeae isolate 452 (blaTEM plasmid: no, gyrA: wild type, mtrR promoter: wild type, parC: wild type, penA: ins345Asp, ponA: wild type, porB: wild type, rpsJ: wild type, tetM plasmid: no)”, the MIC is 0.06 µg/mL with benzylpenicillin; 0.008 µg/mL with azithromycin; 0.25 µg/mL in the test with tetracycline; 32 µg/mL with spectinomycin; ≤ 0.002 µg/mL in the test with ceftriaxone.

Consider “Neisseria gonorrhoeae isolate 110 (blaTEM plasmid: no, gyrA: wild type, mtrR promoter: wild type, parC: wild type, penA: wild type, ponA: wild type, porB: wild type, rpsJ: wild type, tetM plasmid: no)”, for which the MIC was ≤ 0.015 µg/mL in the test with benzylpenicillin; 0.12 µg/mL with azithromycin; 0.5 µg/mL with tetracycline; 32 µg/mL in the test with spectinomycin; 0.004 µg/mL in the test with ceftriaxone.

As for “Neisseria gonorrhoeae isolate 463 (blaTEM plasmid: no, gyrA: Phe91, Asn95, mtrR promoter: wild type, parC: Arg87, Glu91, penA: ins345Asp, ponA: wild type, porB: Lys120, Asn121, rpsJ: wild type, tetM plasmid: no)”, the MIC with benzylpenicillin amounted to 0.25 µg/mL; with azithromycin it was 0.12 µg/mL; in the test with tetracycline it was 1 µg/mL; with spectinomycin, 32 µg/mL; with ceftriaxone it was 0.004 µg/mL.

Regarding “Neisseria gonorrhoeae isolate 245 (blaTEM plasmid: no, gyrA: wild type, mtrR promoter: wild type, parC: wild type, penA: wild type, ponA: wild type, porB: wild type, rpsJ: wild type, tetM plasmid: no)”, the minimum inhibitory concentration (MIC) with benzylpenicillin is ≤ 0.015 µg/mL; in the test with azithromycin it was 0.03 µg/mL; with tetracycline it was 0.12 µg/mL; with spectinomycin it was 32 µg/mL; in the test with ceftriaxone, ≤ 0.002 µg/mL.

Take “Neisseria gonorrhoeae isolate 280 (blaTEM plasmid: no, gyrA: wild type, mtrR promoter: wild type, parC: wild type, penA: wild type, ponA: wild type, porB: wild type, rpsJ: wild type, tetM plasmid: no)”: the MIC is ≤ 0.015 µg/mL in the test with benzylpenicillin; 0.06 µg/mL with azithromycin; 0.25 µg/mL in the test with tetracycline; 16 µg/mL in the test with spectinomycin; ≤ 0.002 µg/mL with ceftriaxone.

As to “Neisseria gonorrhoeae isolate 453 (blaTEM plasmid: no, gyrA: Thr91, Gly95, mtrR promoter: wild type, parC: wild type, penA: ins345Asp, ponA: wild type, porB: wild type, rpsJ: wild type, tetM plasmid: no)”, the MIC in the test with benzylpenicillin was 0.25 µg/mL; with azithromycin it was 0.06 µg/mL; in the test with tetracycline it was 0.12 µg/mL; with spectinomycin, 32 µg/mL; in the test with ceftriaxone, ≤ 0.002 µg/mL.

Take “Neisseria gonorrhoeae isolate 166 (blaTEM plasmid: no, gyrA: Thr91, Gly95, mtrR promoter: wild type, parC: wild type, penA: ins345Asp, ponA: wild type, porB: wild type, rpsJ: wild type, tetM plasmid: no)”: the minimum inhibitory concentration (MIC) with benzylpenicillin was 0.25 µg/mL; in the test with azithromycin, 0.12 µg/mL; with tetracycline it was 0.12 µg/mL; with spectinomycin, 16 µg/mL; in the test with ceftriaxone, ≤ 0.002 µg/mL.

Regarding “Neisseria gonorrhoeae isolate 482 (blaTEM plasmid: no, gyrA: wild type, mtrR promoter: wild type, parC: wild type, penA: wild type, ponA: wild type, porB: wild type, rpsJ: wild type, tetM plasmid: no)”, the MIC was ≤ 0.015 µg/mL with benzylpenicillin; 0.12 µg/mL with azithromycin; 0.12 µg/mL with tetracycline; 16 µg/mL in the test with spectinomycin; ≤ 0.002 µg/mL in the test with ceftriaxone.

As to “Neisseria gonorrhoeae isolate 343 (blaTEM plasmid: no, gyrA: wild type, mtrR promoter: wild type, parC: wild type, penA: wild type, ponA: wild type, porB: wild type, rpsJ: wild type, tetM plasmid: no)”, the MIC with benzylpenicillin was 0.06 µg/mL; with azithromycin it was 0.12 µg/mL; with tetracycline, 0.25 µg/mL; with spectinomycin it was 8 µg/mL; with ceftriaxone, ≤ 0.002 µg/mL.

As to “Neisseria gonorrhoeae isolate 317 (blaTEM plasmid: no, gyrA: Phe91, Asn 95, mtrR promoter: -35delA, parC: Arg87, Glu91, penA: ins345Asp, ponA: Pro421, porB: wild type, rpsJ: Met57, tetM plasmid: no)”, the MIC is 0.5 µg/mL with benzylpenicillin; 0.06 µg/mL in the test with azithromycin; 0.5 µg/mL with tetracycline; 32 µg/mL with spectinomycin; ≤ 0.002 µg/mL in the test with ceftriaxone.

For “Neisseria gonorrhoeae isolate 267 (blaTEM plasmid: no, gyrA: Thr91, Gly95, mtrR promoter: -35delA, parC: wild type, penA: ins345Asp, ponA: wild type, porB: Asn120, Asp121, rpsJ: Met57, tetM plasmid: no)”, the MIC with benzylpenicillin was 0.25 µg/mL; in the test with azithromycin, 0.5 µg/mL; with tetracycline, 2 µg/mL; with spectinomycin, 32 µg/mL; with ceftriaxone, 0.008 µg/mL.

For “Neisseria gonorrhoeae isolate 16 (blaTEM plasmid: no, gyrA: Thr91, Gly95, mtrR promoter: wild type, parC: wild type, penA: ins345Asp, ponA: Pro421, porB: wild type, rpsJ: Met57, tetM plasmid: no)”, the MIC with benzylpenicillin is 0.06 µg/mL; with azithromycin, 0.015 µg/mL; with tetracycline it was 0.5 µg/mL; with spectinomycin, 16 µg/mL; with ceftriaxone, ≤ 0.002 µg/mL.

As to “Neisseria gonorrhoeae isolate 379 (blaTEM plasmid: no, gyrA: Thr91, Gly95, mtrR promoter: wild type, parC: wild type, penA: ins345Asp, ponA: wild type, porB: wild type, rpsJ: Met57, tetM plasmid: no)”, the MIC with benzylpenicillin was 0.25 µg/mL; in the test with azithromycin, 0.12 µg/mL; with tetracycline, 1 µg/mL; in the test with spectinomycin it was 16 µg/mL; with ceftriaxone, ≤ 0.002 µg/mL.

As for “Neisseria gonorrhoeae isolate 504 (blaTEM plasmid: no, gyrA: Phe91, Asn95, mtrR promoter: wild type, parC: Arg87, Glu91, penA: ins345Asp, ponA: Pro421, porB: wild type, rpsJ: Met57, tetM plasmid: no)”, the MIC amounted to 0.12 µg/mL with benzylpenicillin; 0.06 µg/mL with azithromycin; 0.5 µg/mL in the test with tetracycline; 16 µg/mL in the test with spectinomycin; 0.004 µg/mL with ceftriaxone.

For the test system “Neisseria gonorrhoeae isolate 394 (blaTEM plasmid: no, gyrA: Phe91, Gly95, mtrR promoter: wild type, parC: Arg87, Gly91, penA: ins345Asp, ponA: Pro421, porB: Asp120, Ala121, rpsJ: Met57, tetM plasmid: no)”, the MIC with benzylpenicillin turned out to be 0.25 µg/mL; with azithromycin, 0.015 µg/mL; in the test with tetracycline, 0.5 µg/mL; with spectinomycin, 32 µg/mL; with ceftriaxone, 0.008 µg/mL.
